System: VZV-BAC-Luc strain
Format: in vivo, mouse

Question: How did the VZV spread (1.25, 2.5, and 5.0 mg/kg, 8 doses by oral gavage once daily starting 2 dpi, 1-way ANOVA, p<0.0001) turn out when `CCCCCCCCCCCCCCCCOCCCOP(=O)(O)COC(CO)Cn1ccc(N)nc1=O` (centres unmarked) [HDP-CDV] was run?
Answer: effective and significantly prevented VZV spread

Question: What about the efficacy in vivo (eight doses of 5 mg/kg delayed to 2 dpi or 4 dpi, and 4 doses from 2-5 dpi) of the same compound?
Answer: effective
